From article PMC9312491 come the findings set out here.

Sequences of proteins named here, by UniProt entry; tags and fusion partners are left off.
UniProt P22202: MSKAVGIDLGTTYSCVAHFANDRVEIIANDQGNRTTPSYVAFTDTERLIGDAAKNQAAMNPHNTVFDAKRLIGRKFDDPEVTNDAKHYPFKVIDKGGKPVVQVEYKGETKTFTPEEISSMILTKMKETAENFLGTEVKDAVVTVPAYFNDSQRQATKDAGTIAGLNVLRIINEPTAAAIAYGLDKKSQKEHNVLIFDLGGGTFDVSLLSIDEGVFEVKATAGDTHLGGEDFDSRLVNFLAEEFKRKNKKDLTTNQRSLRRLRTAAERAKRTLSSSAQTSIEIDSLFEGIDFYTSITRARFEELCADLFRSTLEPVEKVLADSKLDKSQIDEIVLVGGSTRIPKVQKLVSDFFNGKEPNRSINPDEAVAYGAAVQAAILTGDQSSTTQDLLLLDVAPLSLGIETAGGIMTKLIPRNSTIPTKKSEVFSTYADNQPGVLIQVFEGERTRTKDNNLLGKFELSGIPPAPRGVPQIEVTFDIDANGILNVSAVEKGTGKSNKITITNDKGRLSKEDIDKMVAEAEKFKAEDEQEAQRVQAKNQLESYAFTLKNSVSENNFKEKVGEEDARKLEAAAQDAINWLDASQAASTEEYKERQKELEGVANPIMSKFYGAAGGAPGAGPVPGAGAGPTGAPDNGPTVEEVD
UniProt P10591: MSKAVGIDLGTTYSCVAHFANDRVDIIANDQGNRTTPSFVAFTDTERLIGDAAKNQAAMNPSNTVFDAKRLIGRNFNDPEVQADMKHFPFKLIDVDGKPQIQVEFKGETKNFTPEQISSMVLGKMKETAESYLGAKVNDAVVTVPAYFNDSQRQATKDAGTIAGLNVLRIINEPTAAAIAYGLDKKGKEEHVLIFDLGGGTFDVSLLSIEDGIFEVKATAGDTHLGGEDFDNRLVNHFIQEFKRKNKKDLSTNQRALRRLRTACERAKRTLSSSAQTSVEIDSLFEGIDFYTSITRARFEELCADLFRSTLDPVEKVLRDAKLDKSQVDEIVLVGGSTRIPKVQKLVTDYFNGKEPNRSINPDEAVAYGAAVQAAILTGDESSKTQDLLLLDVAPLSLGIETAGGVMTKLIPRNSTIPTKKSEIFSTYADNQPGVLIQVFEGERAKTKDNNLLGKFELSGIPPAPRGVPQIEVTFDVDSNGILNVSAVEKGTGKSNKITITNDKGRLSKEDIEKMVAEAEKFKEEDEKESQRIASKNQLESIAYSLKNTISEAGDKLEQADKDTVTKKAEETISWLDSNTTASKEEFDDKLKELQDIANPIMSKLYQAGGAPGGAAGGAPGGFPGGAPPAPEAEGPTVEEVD
UniProt P09435: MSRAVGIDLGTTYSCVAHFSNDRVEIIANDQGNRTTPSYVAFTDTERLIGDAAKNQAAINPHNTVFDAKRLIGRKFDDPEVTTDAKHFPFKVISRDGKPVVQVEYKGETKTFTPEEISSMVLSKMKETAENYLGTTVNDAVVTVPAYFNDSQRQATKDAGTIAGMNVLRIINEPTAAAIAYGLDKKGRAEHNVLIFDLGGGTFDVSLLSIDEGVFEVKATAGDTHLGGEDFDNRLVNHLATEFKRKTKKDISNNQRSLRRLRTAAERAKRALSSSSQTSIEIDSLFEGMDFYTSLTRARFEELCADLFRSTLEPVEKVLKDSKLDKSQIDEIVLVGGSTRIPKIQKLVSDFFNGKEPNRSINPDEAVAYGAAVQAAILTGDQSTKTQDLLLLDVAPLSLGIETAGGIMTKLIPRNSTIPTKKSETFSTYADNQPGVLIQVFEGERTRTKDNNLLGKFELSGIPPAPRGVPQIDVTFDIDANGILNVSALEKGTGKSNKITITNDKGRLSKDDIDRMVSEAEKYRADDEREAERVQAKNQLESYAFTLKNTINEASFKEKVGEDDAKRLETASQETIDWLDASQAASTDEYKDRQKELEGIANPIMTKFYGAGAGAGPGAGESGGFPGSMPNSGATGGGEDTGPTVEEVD
UniProt P25491: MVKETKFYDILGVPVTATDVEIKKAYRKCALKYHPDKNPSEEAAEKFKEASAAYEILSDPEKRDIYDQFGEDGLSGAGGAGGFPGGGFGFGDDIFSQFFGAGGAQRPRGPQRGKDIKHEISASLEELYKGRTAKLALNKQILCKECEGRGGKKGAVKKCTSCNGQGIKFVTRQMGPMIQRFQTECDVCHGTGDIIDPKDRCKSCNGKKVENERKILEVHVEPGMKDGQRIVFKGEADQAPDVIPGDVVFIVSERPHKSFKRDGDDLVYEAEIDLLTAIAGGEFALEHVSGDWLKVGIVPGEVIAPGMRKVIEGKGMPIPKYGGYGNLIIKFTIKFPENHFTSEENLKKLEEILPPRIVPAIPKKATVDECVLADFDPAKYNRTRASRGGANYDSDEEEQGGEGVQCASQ
UniProt P34931: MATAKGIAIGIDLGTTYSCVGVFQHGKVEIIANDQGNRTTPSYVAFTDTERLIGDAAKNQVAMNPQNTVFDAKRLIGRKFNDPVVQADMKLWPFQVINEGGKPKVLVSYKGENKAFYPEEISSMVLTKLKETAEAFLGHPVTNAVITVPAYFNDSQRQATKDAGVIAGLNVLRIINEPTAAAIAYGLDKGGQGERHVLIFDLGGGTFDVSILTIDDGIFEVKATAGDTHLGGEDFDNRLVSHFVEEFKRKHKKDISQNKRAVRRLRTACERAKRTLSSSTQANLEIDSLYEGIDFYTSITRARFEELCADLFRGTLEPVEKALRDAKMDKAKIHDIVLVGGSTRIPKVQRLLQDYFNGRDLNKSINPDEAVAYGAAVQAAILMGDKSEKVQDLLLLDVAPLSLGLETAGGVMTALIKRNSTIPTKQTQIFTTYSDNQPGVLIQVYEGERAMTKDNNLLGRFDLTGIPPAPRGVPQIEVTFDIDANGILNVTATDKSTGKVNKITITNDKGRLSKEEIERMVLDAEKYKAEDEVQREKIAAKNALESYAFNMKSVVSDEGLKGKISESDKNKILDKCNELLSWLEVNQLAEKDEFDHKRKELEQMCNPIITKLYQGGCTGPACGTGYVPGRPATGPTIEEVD
UniProt P0DMV8: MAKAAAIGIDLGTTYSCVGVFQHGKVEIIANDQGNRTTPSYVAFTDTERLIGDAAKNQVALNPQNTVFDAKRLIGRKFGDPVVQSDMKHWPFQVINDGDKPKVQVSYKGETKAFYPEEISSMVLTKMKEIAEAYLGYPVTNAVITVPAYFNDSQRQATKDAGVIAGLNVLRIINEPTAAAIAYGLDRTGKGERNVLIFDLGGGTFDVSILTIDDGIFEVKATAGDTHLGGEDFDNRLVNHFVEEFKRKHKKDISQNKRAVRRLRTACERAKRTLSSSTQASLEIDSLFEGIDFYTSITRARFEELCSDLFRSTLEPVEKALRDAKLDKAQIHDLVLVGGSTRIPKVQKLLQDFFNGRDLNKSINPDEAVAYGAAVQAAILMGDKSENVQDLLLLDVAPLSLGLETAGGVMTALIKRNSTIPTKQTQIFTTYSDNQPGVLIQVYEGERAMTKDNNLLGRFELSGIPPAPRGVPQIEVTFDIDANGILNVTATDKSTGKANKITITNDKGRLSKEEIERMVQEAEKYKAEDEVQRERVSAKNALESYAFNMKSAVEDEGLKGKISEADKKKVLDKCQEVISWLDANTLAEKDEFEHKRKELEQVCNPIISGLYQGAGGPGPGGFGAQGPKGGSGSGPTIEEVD
UniProt P11142: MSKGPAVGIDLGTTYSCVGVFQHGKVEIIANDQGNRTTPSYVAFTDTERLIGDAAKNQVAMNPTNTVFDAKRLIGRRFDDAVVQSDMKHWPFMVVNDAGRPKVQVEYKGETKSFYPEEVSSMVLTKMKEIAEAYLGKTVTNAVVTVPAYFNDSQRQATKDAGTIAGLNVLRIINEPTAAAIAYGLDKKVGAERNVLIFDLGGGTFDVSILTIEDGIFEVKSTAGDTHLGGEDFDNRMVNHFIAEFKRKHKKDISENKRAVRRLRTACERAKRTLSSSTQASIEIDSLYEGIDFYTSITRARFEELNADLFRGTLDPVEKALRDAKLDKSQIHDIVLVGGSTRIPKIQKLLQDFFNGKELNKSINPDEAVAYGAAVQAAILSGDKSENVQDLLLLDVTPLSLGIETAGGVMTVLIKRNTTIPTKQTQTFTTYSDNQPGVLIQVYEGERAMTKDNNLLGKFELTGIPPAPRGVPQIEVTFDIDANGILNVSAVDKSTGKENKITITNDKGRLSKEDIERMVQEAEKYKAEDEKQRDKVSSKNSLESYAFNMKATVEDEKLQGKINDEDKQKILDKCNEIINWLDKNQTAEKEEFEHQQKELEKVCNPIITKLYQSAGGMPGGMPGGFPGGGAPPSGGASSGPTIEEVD

No constants are given. Whether binding was seen depends on the method and setting. In cells and extracts the contact can be indirect. Some results given as binding are weak or reduced against the parent protein; the word gives no strength. Where a sequence is shown, tags or fusion partners need not be part of it.

One assay concerns the target T1, HA-tagged Apn2 (budding yeast) (UniProt P38207).
T1 sequence: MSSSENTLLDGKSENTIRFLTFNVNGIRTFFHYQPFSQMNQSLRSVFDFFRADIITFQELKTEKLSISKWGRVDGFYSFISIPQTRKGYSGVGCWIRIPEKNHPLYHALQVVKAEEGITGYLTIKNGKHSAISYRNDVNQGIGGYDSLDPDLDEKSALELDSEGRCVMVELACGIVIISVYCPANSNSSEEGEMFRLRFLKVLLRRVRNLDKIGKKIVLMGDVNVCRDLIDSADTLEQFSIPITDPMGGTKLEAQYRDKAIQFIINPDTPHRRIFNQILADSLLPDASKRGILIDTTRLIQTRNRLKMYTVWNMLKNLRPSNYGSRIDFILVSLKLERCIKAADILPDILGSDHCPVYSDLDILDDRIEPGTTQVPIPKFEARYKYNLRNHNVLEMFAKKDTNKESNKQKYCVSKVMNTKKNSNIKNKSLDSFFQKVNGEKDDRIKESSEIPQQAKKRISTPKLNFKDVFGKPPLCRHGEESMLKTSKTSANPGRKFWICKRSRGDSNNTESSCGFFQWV
Description: co-IP; yeast lysate (50 mM Na-phosphate pH 8.0, 300 mM NaCl, 0.01% Tween-20); HA-tagged Apn2 held on anti-HA magnetic beads, 30 °C for 30 min; partners found by Western blot. On the technique in general: Immunoblotting shows a protein as a band on a membrane.
For Flag-Ssa4 (from UniProt P22202 1-642), the binding entry is “binds”. Same read-out and setting: as for Ssa1 (from UniProt P10591 1-642), the entry is “binds”; as for Flag-Ssa3 (from UniProt P09435 1-649), “binds”; as for Hsp82 (from UniProt P02829 1-709), “binds”. Same read-out and setting: as for Flag-Ssa1 (from UniProt P10591 1-642), the entry is “binds”; as for Hsp82-His (from UniProt P02829 1-709), “binds”. Still for that read-out and setting: as for Ydj1 (from UniProt P25491 1-409), the entry is “binds”.

Another assay has as its target T2, HA-APE2 (UniProt Q9UBZ4).
T2 sequence: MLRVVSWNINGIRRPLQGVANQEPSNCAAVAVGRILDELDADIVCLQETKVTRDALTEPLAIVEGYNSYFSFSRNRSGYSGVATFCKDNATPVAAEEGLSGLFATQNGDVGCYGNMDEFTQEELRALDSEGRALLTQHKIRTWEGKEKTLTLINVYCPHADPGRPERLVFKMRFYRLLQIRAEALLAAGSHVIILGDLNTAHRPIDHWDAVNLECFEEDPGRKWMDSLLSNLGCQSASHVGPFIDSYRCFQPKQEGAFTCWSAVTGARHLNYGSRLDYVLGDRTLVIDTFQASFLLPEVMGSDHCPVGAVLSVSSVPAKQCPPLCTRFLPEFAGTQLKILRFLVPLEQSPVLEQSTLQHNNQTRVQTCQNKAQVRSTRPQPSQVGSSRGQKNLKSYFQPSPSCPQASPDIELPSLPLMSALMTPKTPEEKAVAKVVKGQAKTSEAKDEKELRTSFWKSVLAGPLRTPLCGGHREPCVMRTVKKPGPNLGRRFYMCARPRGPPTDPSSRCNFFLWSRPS
Nature of the assay: co-IP; lysate (M-PER) of transfected HEK293 cells, 48 h after transfection; HA-APE2 held on anti-HA magnetic beads, 30 °C for 30 min; partners found by Western blot.
With HSPA1L-V5 (from UniProt P34931 1-641), the binding result is “binds”.

With HSPA1A-V5 (from UniProt P0DMV8 1-641), the binding entry is reported as “binds”. Same read-out and setting: in the case of HSPA8-V5 (from UniProt P11142 1-646) it was “binds”. Still for that read-out and setting: as for DNAJA1 (from UniProt P31689 1-397), the entry is “no binding”.
